# Experimental data reported in the supplement of paper PMC10986608.
# Some of the results follow. Many values rest on one well or one pass, so single values are uncertain.
# System: Candida albicans DPL-15
# Assay: growth (OD600) after compound treatment (apparently relative to screen median) (relative growth (fraction; screen median 1.02)); DPL-15 is a caspofungin-resistant clinical isolate; higher = more fungal growth (less antifungal activity)
# Conditions: 25 µM; RPMI 1640; 48 h; 30 °C
row,SMILES,growth
1,[NH3+]c1nc2cnncc2[nH]1,1.01
2,CC(C)Cc1nn(-c2ccc(F)cc2)c2c1C(c1ccc(Br)cc1)NC2=O (stereo unspecified),1.09
3,COC(=O)C/C=C/[C@H](C)[C@@H](NC(=O)[C@H](NC(=O)OC(C)(C)C)C(C)C)c1ccccc1,1.06
4,COc1ccc([C@H]2OC[C@H](Cc3ccc4c(c3)OCO4)[C@@H]2CO)cc1OC,1.03
5,CCOc1cc2c(cc1OCC)CN(CCc1ccc(NC(=O)c3cccc4c(=O)c5cccc(OC)c5[nH]c34)cc1)CC2,1.05
6,CC(=O)C1=C(C)NC(=O)NC1c1cccs1 (stereo unspecified),0.941
7,COc1ccc2c(c1)C[C@H](C)O[C@@]21C(=O)Nc2ccccc21,0.862
8,COc1ccc([C@@]23Oc4cc(OC)cc(OC)c4[C@]2(O)[C@H](O)[C@H](C(=O)N(C)C)[C@H]3c2ccc(O)c(OC)c2)cc1,1.26
9,COC(=O)C1(c2ccccc2)C=CC=C(OC)C=C1 (stereo unspecified),1.2
10,CCNC(=O)[C@H]1[C@H](C(=O)NCC)[C@@H](c2ccc(OC)c(OC)c2OC)[C@@H]1c1ccc(OC)c(OC)c1OC,0.922
11,CC(C)C1=NCCN(C)C2=C1C(c1ccc(F)cc1)N(c1ccccc1)C2=O (stereo unspecified),1.02
12,Cc1ccc(S(=O)(=O)Oc2c(CC3(C)C(c4ccccc4)=Nc4ccc(F)cc43)occc2=O)cc1 (stereo unspecified),1.01
13,Cc1nn(C)cc1Nc1cc(O)cc(O)c1C(=O)N1CC[C@@H](F)C1,1.09
14,C=CCN1C(=O)c2[nH]nc(COC)c2C1c1cccc(C(F)(F)F)c1 (stereo unspecified),1.02
15,CC(C)=CC[C@H]1C[C@@]23C[C@H](CC=C(C)C)C(C)(C)[C@@](CC=C(C)C)(C(=O)C(C(=O)c4ccccc4)=C2OC1(C)C)C3=O,1.08
16,CC(C)(C)NS(=O)(=O)OCCCCCO[Si](C)(C)C(C)(C)C,1.09
17,CC1(Cc2occc(=O)c2OS(C)(=O)=O)C(c2ccccc2)=Nc2ccc(F)cc21 (stereo unspecified),1.03
18,COC(=O)[C@@]12Oc3cccc(O)c3C(=O)C1=C(O)C[C@H](C)[C@H]2O,1.12
19,O=C1NC(c2ccccc2)c2c1nn(-c1ccccc1)c2-c1ccccc1 (stereo unspecified),0.925
20,O=C(NCc1nnc(-c2ccccc2)c(-c2ccccc2)n1)OCc1ccccc1,0.836
21,CC(C)CCCC(C)CCN(C(=O)OC(C)(C)C)S(=O)(=O)NCC(F)(F)F (stereo unspecified),1.04

row,SMILES,growth
1,[NH3+]c1nc2nccnc2[nH]1,1.07
2,COc1ccc(N2C(=O)C3=C(C(C)=NCCN3)C2c2cccc(C(F)(F)F)c2)cc1 (stereo unspecified),0.917
3,COc1ccc(N2C(=O)c3[nH]nc(CC(C)C)c3C2c2ccncc2)cc1 (stereo unspecified),0.85
4,O=S(=O)(Nc1ccc(C(F)(F)F)cc1)OCCCc1ccccc1,0.828
5,Cc1ccc2[nH]c3nc(CCCn4ccnc4-c4ccccc4)nnc3c2c1,1.01
6,Nc1ccc(CC(=O)N2Cc3ccccc3C2)cc1,1.13
7,CC1=NCCNC2=C1C(c1ccc(Br)cc1)N(c1ccccc1)C2=O (stereo unspecified),1.08
8,COc1cc(N2C(=O)c3[nH]nc(CC(C)C)c3C2c2ccccc2Cl)cc(OC)c1OC (stereo unspecified),1.16
9,CN1CCN=C(c2ccccc2)C2=C1C(=O)NC2c1ccccc1 (stereo unspecified),0.947
10,COc1ccc([C@]23[C@H](c4ccccc4)C[C@@H](O)[C@@]2(O)c2c(F)cccc2N3C)cc1,1.07
11,COC(=O)[C@@H]1[C@@H](c2ccccc2)[C@]2(c3ccc(OC)cc3)Oc3cc(OC)cc(OC)c3[C@@]23NC(c2cccnc2)=N[C@@]13O,1.21
12,O=CNCCc1ccc(O)c(O)c1,0.893
13,O=c1c(O)c(-c2ccc(N3CCOCC3)cc2)[nH]c2ccccc12,0.234
14,COc1ccc(C2=C[C@@]3(c4ccc(OC)cc4)[C@@H]4C(=O)[C@](C)(O)[C@@H](C=C4C(C)C)[C@H]3C2=O)cc1,1.07
15,CC(C)Cc1n[nH]c2c1C(c1cccc(C(F)(F)F)c1)N(CCN1CCCC1)C2=O (stereo unspecified),1.07
16,C#CCC(C)(C)CNC(=O)CC1(CNC(=O)c2cccc(-c3ccccc3/C=N/NS(=O)(=O)c3ccc(C)cc3)c2)CCCCC1,1.04
17,COc1cc2c(cc1OC)[C@@H]1O[C@](CCN3C(=O)c4ccccc4C3=O)(C2)OC2=C1C(=O)CC(C)(C)C2,0.891
18,Nc1c(-c2ccccn2)cnc2c(-c3ccc(Cl)cc3)cnn12,1.11
19,COC(=O)[C@]1(C)CCC[C@@]2(C)[C@H]1CC=C1[C@@H](O)[C@](O)(C(C)C)CC[C@@H]12,0.933
20,C=CCOC(=O)c1c2n[nH]c1-c1cccc(c1)C(=O)NCC1(CCCCC1)CC(=O)NCCC2,1.13
21,COc1ccc(-c2oc(-c3ccc4c(c3)OCO4)c(CO)c2CO)cc1OC,1.06

row,SMILES,growth
1,CO[C@@H]1[C@H](O)CC[C@]2(O)CN(Cc3cccc4ccccc34)[C@@H](CC=C(C)C)[C@](C)(O)[C@@H]12,1.03
2,C=CCN1C(=O)C2=C(C(CC(C)C)=NCCN2C)C1c1ccccc1 (stereo unspecified),1
3,CCN1C(=O)N[C@@H](c2ccco2)C(C(=O)OC)=C1C,0.988
4,CC(C)CC1=NCCNC2=C1C(c1ccc(Br)cc1)NC2=O (stereo unspecified),0.997
5,O=C1Nc2cc(F)ccc2C1(c1ccc2c(c1)CCO2)c1ccc2c(c1)CCO2,0.779
6,CC(=O)N[C@@H]1CCN(C(=O)c2c(O)cc(O)cc2Nc2ccnn2C)C1,1.07
7,CC(=O)OC[C@H]1O[C@H](C#Cc2ccccc2F)C=C[C@H]1OC(C)=O,0.862
8,CCc1ccccc1-n1nc2c(c1C(C)C)C(c1ccccc1)NC2=O (stereo unspecified),1.07
9,CC1=NCCN(C)C2=C1C(c1ccc(F)cc1)N(c1ccccc1)C2=O (stereo unspecified),1.04
10,COc1ccc(Cn2nc(C3CC3)cc2Nc2cc(O)cc(O)c2C(=O)N2Cc3cn[nH]c3C2)cc1,0.965
11,CC(C)(C)[Si](C)(C)OCC1=C(c2cc3c4c(ccc5c4c2OCO5)OCO3)C(=O)[C@@H]2O[C@]2(C)[C@@H]1O,active: 0.0132
12,C=CC[C@@]12O[C@@H]1C1(OCCCO1)C(CO)=C(Br)C2=O,0.936
13,COc1ccc([C@@H]2[C@@H](C(=O)NCC3CC3)[C@H](C(=O)NCC3CC3)[C@H]2c2ccc(OC)c(OC)c2OC)c(OC)c1OC,1.36
14,CC1=NCCNC2=C1C(c1ccc(C)cc1)N(c1ccccc1)C2=O (stereo unspecified),0.888
15,COC(=O)C1=C(C)N(C)C(NCc2ccc3c(c2)OCO3)=NC1c1cccc(F)c1 (stereo unspecified),0.853
16,C=CCN1C(=O)C2=C(C(c3ccccc3)=NCC(C)(C)N2)C1c1ccc(Br)cc1 (stereo unspecified),1.05
17,CN(Cc1ccccc1)C(=O)c1c(O)cc(O)cc1CC(=O)c1ccccc1,0.926
18,CC(=O)C1=C2C=CCCN2C(=O)NC1c1cc(F)ccc1[N+](=O)[O-] (stereo unspecified),0.906
19,Cc1ccc(C2NC(=O)c3c2c(-c2ccccc2)nn3-c2cc(C)cc(C)c2)cc1 (stereo unspecified),0.921
20,COc1ccc(CCN2C[C@@]3(O)CC[C@@H](O)[C@@H](OC)[C@@H]3[C@@](C)(O)[C@@H]2CC=C(C)C)cc1OC,1.09
21,COc1ccc(C[C@H]2COC(=O)[C@@H]2Cc2ccc(OC)cc2)cc1,0.798

row,SMILES,growth
1,COc1ccc(-c2cnc3c(-c4ccncc4)cnn3c2N)cc1,1.28
2,COc1cc(OC)c2c(c1)oc(=O)c1c(O)ccc(O)c12,1.05
3,Cn1nccc1Nc1cc(O)cc(O)c1C(=O)N1CC[C@H](F)C1,1.06
4,C=CCOC(=O)C1(C#CC(=C)C)CCCCC1=O (stereo unspecified),1.06
5,C#CCC(C)(C)CNC(=O)[C@@H]1C[C@@H](O)CN1C(=O)c1cccc2cnnn12,1.06
6,CC(C)c1c2c(nn1C)C(=O)N(Cc1ccccc1)C2c1cccc(C(F)(F)F)c1 (stereo unspecified),0.953
7,COc1ccc(C2=C[C@@]3(c4ccc(OC)cc4)[C@@H]4C(=O)[C@](C)(O)[C@@H](C=C4C(C)(C)C)[C@H]3C2=O)cc1,1.15
8,COCn1c2ccccc2c2nnc(C(=O)c3ccccc3)nc21,0.966
9,C=CC[C@]12CC(=C)C[C@](C)(C(=O)C(C(=O)OC)=C1C)C2=O,0.884
10,COc1ccc([C@@H]2[C@@H](C(=O)NC3CCCC3)[C@H](C(=O)NC3CCCC3)[C@H]2c2ccc(OC)c(OC)c2)cc1OC,1.06
11,CCc1ccccc1-n1nc(CC(C)C)c2c1C(=O)NC2c1ccc(C)cc1 (stereo unspecified),1.08
12,C[C@H]1C=C(c2ccccc2)[C@]2(CCCO2)[C@@H]1c1ccccc1,1.02
13,N#Cc1ccc(-c2[nH]c3cccc(F)c3c(=O)c2O)cc1,0.321
14,CC(=O)C1=C(C)N(Cc2ccc(F)cc2)C(=S)NC1c1cccc(Br)c1 (stereo unspecified),0.867
15,COc1ccc(C2NC(=O)N3CCC=CC3=C2C(C)=O)cc1F (stereo unspecified),1.01
16,COc1ccc(N2C(=O)C3=C(C(c4ccccc4)=NCC(C)(C)N3)C2c2ccc(F)cc2)cc1 (stereo unspecified),0.902
17,COc1ccc(N2C(=O)C3=C(C(C(C)C)=NCC(C)(C)N3)C2c2ccc3c(c2)OCO3)cc1 (stereo unspecified),1.07
18,COc1cc(OC)c2c(c1)O[C@@]1(c3ccc(Br)cc3)[C@H](c3ccccc3)c3c(nc(-c4ccccc4)[nH]c3=O)[C@@]21O,1.01
